# Laboratory results published in PubChem BioAssay AID894 (National Center for Advancing Translational Sciences (NCATS), 2007).
# The whole screen tested about 150,000 compounds, of which about 6,500 (4.3%) were called active. Inconclusive results, whose numbers are uncertain, are shown with a selection of clear calls. Calls come from the whole dose curve; as a rule, active = well fitted inhibition curve with a large enough effect (not every such curve was filed as active); inconclusive = small, poorly fitted or top-dose-only effect, or another doubt; inactive = no such curve, though single readings can be large or run the other way. Potencies of inconclusive entries are left out as doubtful fits.
# Target: 15-hydroxyprostaglandin dehydrogenase [NAD(+)] (Homo sapiens) (UniProt P15428)
# Sequence of UniProt P15428 (P15428 whole entry, looked up): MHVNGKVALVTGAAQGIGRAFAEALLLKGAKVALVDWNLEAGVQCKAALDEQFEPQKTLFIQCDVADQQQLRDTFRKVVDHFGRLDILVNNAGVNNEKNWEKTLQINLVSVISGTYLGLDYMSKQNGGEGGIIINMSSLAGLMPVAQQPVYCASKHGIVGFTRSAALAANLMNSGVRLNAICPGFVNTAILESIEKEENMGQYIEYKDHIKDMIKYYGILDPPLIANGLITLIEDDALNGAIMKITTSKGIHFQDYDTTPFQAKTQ
# Assay: qHTS Assay for Inhibitors of HPGD (15-Hydroxyprostaglandin Dehydrogenase)
# Details: purified HPGD, NADH fluorescence kinetic, PGE2 substrate; activity change, negative = inhibition: stronger effect = lower value
# Outline: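 NADH formation kinetics: reaction with 30 uM PGE2 and 1 mM NAD+ (final), 20 nM enzyme, Tris-HCl pH 8 with Tween 20, after 15 min compound preincubation at room temperature. Fluorescence change, last versus first of five reads.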
# % is set by controls: 0 for no effect and ±100 for the full control effect; potency is the fitted concentration of half-maximal effect; tags give direction and shape of the fitted curve.
SMILES,"activity change, negative = inhibition",Potency
CCCCCCCCC(=O)Nc1cc(C)ccc1OC,inactive: -13.2%,
COC(=O)c1cc(Cl)c(NC(=O)/C=C/c2ccc(OC)cc2)cc1OC,,"inconclusive [inhibitor, partial curve]"
O=C(N/N=C/c1ccc(Cl)cc1)c1cc2c(s1)-c1ccccc1CC2,,"inconclusive [inhibitor, partial curve]"
O=C(c1cc(-c2ccco2)nn1-c1cccc(Cl)c1)N1CCCCC1,,active: 1.58 µM
N#Cc1c(Cl)nc(SCc2ccccc2)nc1-c1ccccc1,,active: 2.82 µM
CNC(=O)COc1ncnc2sccc12,inactive: -2%,
C=CCN(CC=C)C(=O)c1cc2ccccc2c(=O)o1,,"inconclusive [inhibitor, partial curve, poor fit]"
O=C(c1ccc2c(c1)OCCO2)N1CCCCC1,,active: 0.126 µM
Cc1ccc(S(=O)(=O)Nc2ccc3oc(=O)sc3c2)c(C)c1,,"inconclusive [inhibitor, partial curve]"
CC(=O)/C(=N\Nc1ccc(Cl)cc1Cl)Sc1nnc(-c2ccccc2)n1-c1ccccc1,,"inconclusive [inhibitor, partial curve]"
O=C(O)CNc1ccc(C(=O)O)cc1,inactive: -3.34%,
COc1ccc(-n2cc(-c3ccccc3)c3c(N4CCN(CCO)CC4)ncnc32)cc1,,"inconclusive [inhibitor, partial curve]"
Cc1ccc(C)n1-n1cnc2sc3c(c2c1=O)CCCCC3,inactive: -4.78%,
COCCCNC(=O)CCCOc1ccccc1,,active: 14.1 µM
CCCc1cc(=O)oc2c(CN3CCCC3)c(O)c(Cl)cc12,,"inconclusive [inhibitor, partial curve]"
COc1ccc(C(=O)/C=C2/c3ccccc3CC(C)(C)N2C)cc1OC,inactive: -9.5%,
COc1ccccc1CNC(=O)c1cccs1,,active: 15.8 µM
c1coc(-c2nc(-c3ccco3)c(-c3ccco3)nc2-c2ccco2)c1,,"inconclusive [inhibitor, partial curve]"
O=S(=O)(c1ccc(C2=CSC3=NCCN23)cc1)N1CCOCC1,,"inconclusive [inhibitor, single point]"
O=C(NCCc1ccccc1)c1ccc(OCCOc2ccccc2)cc1,inactive: -14.9%,
Cc1cc(C(=O)NNC(=S)Nc2ccccc2C)cs1,inactive: -17.5%,
N#Cc1c(NC(=O)c2cc(-n3cnnc3)ccc2Cl)sc2c1CCCC2,inactive: -10.7%,
O=C(Nc1nc2n(n1)C(c1ccccc1)C=C(c1ccccc1)N2)c1ccco1 (centres undefined),,"inconclusive [inhibitor, partial curve]"
CNC(=O)c1ccsc1NC(=O)c1ccc(S(=O)(=O)N2CCCc3ccccc32)cc1,,"inconclusive [inhibitor, partial curve]"
c1coc(-c2nnc(-c3ccc4c(c3)OCO4)o2)c1,,"inconclusive [inhibitor, partial curve]"

SMILES,"activity change, negative = inhibition",Potency
O=C(Cc1ccccc1)NC(=S)Nc1ccc2oc(-c3ccccc3)nc2c1,,"inconclusive [inhibitor, partial curve]"
COC(=O)c1ccc(Sc2ccccc2NS(=O)(=O)c2ccc(NC(C)=O)cc2)nc1,inactive: -15.4%,
CC/C(C)=N/Nc1cccc([N+](=O)[O-])c1,inactive: -5.55%,
CC(=O)N1N=C(c2ccncc2)OC12CCCCCC2,,"inconclusive [inhibitor, partial curve]"
Cc1cc(N2CCN(C(=O)c3ccco3)CC2)n2nc(C)c(-c3ccc(Cl)cc3)c2n1,,"inconclusive [inhibitor, single point]"
COc1ccc2[nH]c3c(NCCCN4CCCC4=O)ncnc3c2c1,,"inconclusive [inhibitor, partial curve]"
COC(=O)c1[nH]c2ccccc2c1NC(=O)C(C)N1CCN(C(=O)c2ccco2)CC1 (centres undefined),inactive: -10.3%,
CCOc1ccccc1C1NC(=O)NC(C)=C1C(=O)OC1CCCC1C (centres undefined),,"inconclusive [inhibitor, single point]"
Cc1cc(C)n2nc(N)c(N=Nc3ccc(Cl)cc3)c2n1,inactive: -1.22%,
CCCCN(C(=O)NC(=O)Nc1nc2ccc(OC)cc2s1)S(C)(=O)=O,,"inconclusive [inhibitor, partial curve]"
O=C(/C=C/c1cccc(Cl)c1)NCc1cccs1,,active: 31.6 µM
CC(C)c1ccc(Nc2nnc(SCC(=O)c3nnc(-c4ccccc4)o3)s2)cc1,,active: 31.6 µM
Cc1ccc(Cn2c(C)nc3c(c2=O)c2nc4ccccc4nc2n3Cc2ccco2)cc1,,"inconclusive [inhibitor, partial curve]"
CCOC(=O)c1cccc(NC(=O)c2cccs2)c1,inactive: -15.9%,
Cn1c(C(=O)NC2CCCC2)cc2c(=O)n(C)c3ccccc3c21,,"inconclusive [inhibitor, partial curve]"
COc1c(-c2ccccc2)oc2c(ccc3occc32)c1=O,,"inconclusive [inhibitor, partial curve, poor fit]"
COc1ccc(/C=N/NC(=O)Cn2nnc3ccccc32)cc1OC,,"inconclusive [inhibitor, partial curve]"
COc1ccc(-c2cc(C(F)(F)F)nc(SCC(=O)Nc3cc(C)on3)n2)cc1OC,,"inconclusive [inhibitor, partial curve]"
CC1=C(C#N)C(C)C2=C(CC(C)(C)CC2=O)N1 (centres undefined),,"inconclusive [inhibitor, partial curve]"
COc1ccc2[nH]c3c(c2c1)CCn1c-3nc2ccccc2c1=O,,"inconclusive [inhibitor, partial curve]"
COc1ccc(C(=O)/C=C/c2ccc(OC)c(Cn3nnc4ccccc43)c2)cc1,,"inconclusive [inhibitor, single point]"
Clc1ccc(-c2nc3nc4ccccc4nc3n2Cc2ccco2)cc1,,"inconclusive [inhibitor, partial curve]"
COC(=O)c1oc2ccc(Cl)cc2c1N,,"inconclusive [inhibitor, partial curve]"
N=c1oc2cc(O)ccc2cc1C(=O)Nc1nc2ccccc2s1,,"inconclusive [inhibitor, partial curve]"
COc1ccc(NS(=O)(=O)c2ccc(N/N=C(\C)c3ccncc3)c([N+](=O)[O-])c2)cc1,,active: 6.31 µM

SMILES,"activity change, negative = inhibition",Potency
O=C(N/N=C/c1ccc([N+](=O)[O-])s1)C(O)c1ccccc1 (centres undefined),,"inconclusive [inhibitor, partial curve]"
C=CCn1c(NC(=O)c2ccc(Br)o2)c(C(=O)OCC)sc1=S,,active: 15.8 µM
CS(=O)(=O)c1ccc(-c2cc(Br)sc2-c2ccc(F)cc2)cc1,,"inconclusive [inhibitor, single point]"
CCc1cc2c(=O)c(-c3cnn(-c4ccccc4)c3)c(C)oc2cc1OCC(=O)Nc1cccc(C)c1,inactive: -6.15%,
CCOC(=O)c1sc(=S)n(C)c1NC(=O)c1ccccc1Cl,,active: 28.2 µM
N#CC1=C(N)Oc2cc(N)ccc2C1C1CC=CCC1 (centres undefined),,"inconclusive [inhibitor, partial curve]"
S=c1ccss1,,active: 6.31 µM
COc1ccc(C(=O)Nc2cc(Cl)ccc2Cl)c(OC)n1,,"inconclusive [inhibitor, partial curve]"
CCC(=O)Nc1nc2nc(-c3ccccc3)cc(-c3ccccc3)n2n1,,"inconclusive [inhibitor, partial curve]"
CC(=O)Nc1ccc(NC(=O)CSC2=NCCS2)cc1,inactive: -7.18%,
Cn1ncc(Br)c1C(=O)NC1C2CC3CC(C2)CC1C3 (centres undefined),inactive: -4.71%,
Cc1ccc(/C=C2\SC(=S)N(CC(=O)Nc3ncc(Cc4ccccc4Cl)s3)C2=O)cc1,,"inconclusive [inhibitor, full curve, poor fit]"
Cc1cnc(NC(=O)CSc2nc3ccccc3c(=O)[nH]2)s1,,active: 15.8 µM
COC(=O)CSc1nnc(-c2ccc(NS(=O)(=O)c3ccccc3)cc2)o1,,active: 17.8 µM
Cc1ccccc1NC(=O)CSCC(=O)Nc1ccccc1C,,active: 17.8 µM
O=C(Cc1coc2cc3c(cc12)CCC3)OCc1cc(=O)n2c(n1)sc1ccccc12,,"inconclusive [inhibitor, partial curve]"
COC(=O)N/N=C/c1ccc(-c2ccc(C)c(Cl)c2)o1,,active: 14.1 µM
Cc1ccc(-c2cc3nc(-c4ccccc4)cc(N4CCOCC4)n3n2)cc1,,"inconclusive [inhibitor, partial curve]"
CCOc1ncccc1C(=O)OCc1nnc(-c2ccccc2)o1,,active: 15.8 µM
Cn1cc(C(=O)N/N=C/C(Br)=C/c2ccccc2)ccc1=O,,active: 28.2 µM
CCn1c(=O)c(=O)n(CC)c2cc(S(=O)(=O)Nc3cccc(OC)c3)ccc21,inactive: -20.5%,
COc1ccc(NC(=O)Cn2c(=O)n(-c3ccc(OC)cc3OC)c(=O)c3c(C)c(C)sc32)cc1,inactive: -13.7%,
Cc1ccc(/C=C2\SC(N3CCN(C(c4ccccc4)c4ccccc4)CC3)=NC2=O)o1,,active: 3.55 µM
CC(C)C[C@@H](CC(=O)N[C@@H](CCCN)CC(=O)N[C@@H]1CCNC[C@H]1C(=O)N[C@H](CC(=O)N[C@@H](CCC(=O)O)CC(=O)O)CC(C)C)NC(=O)[C@@H]1CNCC[C@H]1N,inactive: -2.6%,
